Experimental data: the supplement of paper PMC3724861
Some of the results follow.

Test system: T1, Caupolican (Caup) homeodomain DNA-binding domain
T1 sequence: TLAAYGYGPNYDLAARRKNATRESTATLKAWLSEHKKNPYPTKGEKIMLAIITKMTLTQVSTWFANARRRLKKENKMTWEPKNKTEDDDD
Assay: PBM E-score (8-mer, recovered from the published 9-mer minima) (E-score (dimensionless, -0.5 to 0.5)); Drosophila protein; higher = stronger relative binding preference, active = 0.31 or more
Method in brief: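 Caup's homeodomain DNA-binding domain (residues 214-303) was produced by in vitro transcription and translation and applied at 100 nM to custom-designed protein binding microarrays. Each value is an enrichment score giving relative binding preference for a short DNA word; higher means stronger. Published 9-mer scores were the minimum of their two constituent 8-mer scores, and the 8-mer values were recovered from those minima. A cutoff of 0.31 marks candidate binding sequences.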

Sequence | PBM E-score
AGCGAAAG | inactive: -0.121
CATTATCA | inactive: 0.177
ACCGCTAA | inactive: 0.0277
AGACAATA | inactive: 0.203
CCCAAAGA | inactive: -0.158
CAGGTGTC | inactive: 0.0721
ACATCCAT | inactive: 0.241
GATCTAGA | inactive: -0.0194
AACTAAGA | inactive: 0.11
AGCCTCTG | inactive: -0.217
AACTGCTA | inactive: 0.036
GAAAGCGA | inactive: -0.0802
GACAGTGA | inactive: 0.102
ACACAATA | active: 0.31
TAAGCCAA | inactive: -0.0619
TACACGCA | inactive: 0.29
ATCTTGTA | active: 0.375
TACGGACA | ≥ 0.265
AGAATGTC | inactive: 0.204
CGGACGTC | inactive: -0.12
GACGTGAC | inactive: 0.0644
ATAAGTCC | inactive: 0.0515
ACCCAGAT | inactive: -0.0464
TCGAAGCA | inactive: -0.0205
GAGAACAC | inactive: 0.236

Sequence | PBM E-score
CGCCATAA | inactive: -0.0604
GAACCACA | inactive: 0.0096
GGGTCACA | inactive: -0.153
GGGCAGTA | inactive: -0.0583
CGGTACGC | inactive: -0.179
CGTCGCAC | inactive: -0.121
ACGGGATG | inactive: -0.00996
CCTGTTCC | inactive: 0.0821
AGATTTCA | inactive: 0.0353
GTATTTGA | inactive: 0.196
ATCTATTC | inactive: 0.12
TATTAAGA | inactive: 0.0425
GGAGCGAA | inactive: -0.114
ATGGCATC | inactive: 0.0355
AAGTGAGG | inactive: -0.0705
CTTCGAAA | inactive: 0.033
ATGACTCA | ≥ 0.118
GTTCAAAC | inactive: 0.109
ATGAAGAG | inactive: -0.0365
ACCGCTCC | inactive: -0.189
ACAGTCAT | ≥ 0.154
AACAGTCA | inactive: 0.0664
AGTGGCAC | inactive: -0.0836
CGGTAACC | inactive: -0.0829
CAGGCGGG | inactive: -0.207

Sequence | PBM E-score
CATACTGC | inactive: -0.0312
CCCTACCG | inactive: -0.185
TAAAAGAA | inactive: 0.0807
TGGTAGAA | inactive: 0.0234
ATCTACGC | inactive: 0.0681
CAAGAATA | inactive: 0.00684
CCTTGAGC | inactive: -0.132
GATCCGTA | inactive: -0.136
ATGGAAGG | inactive: -0.0735
CATGGCCG | inactive: -0.0998
CACAACGG | inactive: 0.00345
TGCACACA | inactive: 0.12
CTTCGATC | inactive: -0.107
ATGGTACC | inactive: 0.0486
AAGAACAA | inactive: 0.259
AAACAGGC | inactive: 0.0748
GGAGAGAA | inactive: -0.109
AGATTTAC | inactive: 0.146
ACTGTCAT | inactive: 0.18
AAGCCGTC | inactive: -0.173
GAACCTGC | inactive: 0.0186
CGTACAAA | inactive: 0.18
CCACGAAG | inactive: -0.116
ATCCGAGC | inactive: -0.047
CCGTGCCG | inactive: -0.172

Sequence | PBM E-score
CTTTACCA | inactive: 0.057
AGACTAAA | inactive: -0.00285
CACGCCAG | inactive: -0.169
GTGAGATA | inactive: 0.0321
CCTGCCCG | inactive: -0.176
AGAATGTG | inactive: 0.0382
GAGCAAGA | inactive: -0.00954
CAGCCTCG | inactive: -0.037
CCGAGAGG | inactive: -0.278
GTTCGGGA | inactive: 0.0323
GGTGTTTA | inactive: 0.124
AAATTTGT | inactive: 0.128
GAGAAGAC | inactive: -0.118
AGGAAGAT | inactive: -0.0551
CCGTCGCG | inactive: -0.17
CAGAAGAG | inactive: -0.0491
ACTATCTA | inactive: 0.192
ATTCCGTG | inactive: 0.133
AATAGGGA | inactive: -0.0269
CACAGCGG | inactive: -0.114
GAACAATA | inactive: 0.166
TCAGGCGA | inactive: -0.124
ATTAGTGC | inactive: 0.105
GCTGGCAA | inactive: -0.0692
AGATCCGC | inactive: -0.129

Sequence | PBM E-score
CAGCACAG | inactive: 0.0685
AGGAGTCG | inactive: -0.0297
GTGTTAGA | inactive: 0.224
GCGACTGA | inactive: -0.131
AAATCTAG | inactive: -0.0103
CAACGATA | inactive: 0.153
ATGCCAAC | inactive: 0.0457
CTGGGCCA | inactive: -0.265
ATTATAAC | inactive: 0.136
CGAACCTA | inactive: -0.0301
ACCCGCAA | inactive: -0.0708
ACTTGTTA | active: 0.368
CCATGCCC | inactive: -0.207
CTGCGCAG | inactive: -0.162
ATCTTCTC | inactive: -0.106
CCTGGATC | inactive: -0.107
CTCACGCA | inactive: -0.056
GGTATAGA | inactive: 0.0474
CGGTGTAA | inactive: 0.185
AAAGTATT | inactive: 0.131
CACGCGCC | inactive: -0.0843
ATTCGATC | inactive: 0.0755
ACTGAAGT | inactive: -0.0277
GACAGGCA | inactive: -0.00243
GTGGGTAA | inactive: -0.0232

Sequence | PBM E-score
ATCATAAG | inactive: 0.149
TAGGCCAA | inactive: -0.0624
AGCCCCGA | inactive: -0.209
GAGCAGGC | inactive: -0.117
GGGATATA | inactive: -0.0036
AGCCGGGC | inactive: -0.217
GTTGGGAA | inactive: -0.0773
GAACAGAC | inactive: 0.172
ACCCCCGC | inactive: -0.25
AGCAGGAT | inactive: 0.0294
ATAATAAT | inactive: 0.192
ACATTCGA | inactive: 0.135
CGCTCAAC | inactive: -0.102
GCGCAGAA | inactive: -0.0554
AAGTATCT | inactive: 0.0556
GGCTGCAC | inactive: -0.132
GGCATTAA | inactive: -0.0379
AGTCAACC | inactive: -0.11
GATGCTTA | inactive: 0.00507
GGAGGTGA | inactive: -0.0714
AAACCTTG | inactive: 0.101
ATGTTTAC | inactive: 0.31
ATAACTAA | ≥ 0.209
CACGTCAG | inactive: 0.0325
CGTAGGAG | inactive: -0.121

Sequence | PBM E-score
ACTGGTCC | inactive: -0.0339
GTGGATGA | inactive: 0.0588
CCCACCGG | inactive: -0.29
ACATGCAT | active: 0.376
AGAAGTCG | inactive: -0.0453
CATGTCTA | active: 0.359
GTGGGCTA | inactive: -0.126
CGCCTGTA | inactive: 0.0166
ATCCGGAG | inactive: -0.00172
AAACAATG | inactive: 0.256
AATAAATG | inactive: 0.186
AGACTTAA | inactive: -0.0298
CGGGCTGA | inactive: -0.224
CGGCGAAA | inactive: -0.107
AATCTTAA | inactive: 0.0317
GCCATAGA | inactive: -0.105
AATGGTGA | inactive: 0.0765
AGAAATAA | inactive: 0.0809
TACGCTGA | inactive: 0.0517
ACTTAGAA | inactive: 0.0598
GAGTCCCC | inactive: -0.298
ATCCAATC | inactive: 0.102
ACAGGAGT | inactive: 0.0982
AGCACGGC | inactive: -0.0403
CCCATAAA | inactive: -0.0849

Sequence | PBM E-score
CAGCCTGA | inactive: -0.135
ACTTTTAC | inactive: 0.123
ATTGACGA | ≥ 0.125
ATGCAAAC | inactive: 0.0812
TTATGGAA | inactive: 0.103
GTCAGAGA | inactive: 0.0222
CGATAGAA | inactive: -0.00872
CTTGGCGC | inactive: -0.221
CATATTGG | inactive: 0.129
AATAAAGC | inactive: 0.0404
CAGTTCGC | inactive: -0.0821
GAAATCAA | inactive: -0.0249
TAAATCAA | inactive: 0.0882
GATCAGCA | inactive: 0.00808
AGACCCGC | inactive: -0.132
AGGATCGG | inactive: -0.0952
ACGGATCG | inactive: 0.00507
TGAGCCCA | inactive: -0.146
ATGAGACG | inactive: -0.0343
ACAGAGGA | inactive: 0.0112
ACCGGAGG | inactive: -0.152
AGACCCCA | inactive: -0.155
TGCTTACA | inactive: 0.191
ACGTATTG | inactive: 0.151
GCACGGAC | inactive: 0.0333

Sequence | PBM E-score
ACGGTCTA | inactive: -0.00318
GCTCCGGA | inactive: -0.114
AGCAACAG | inactive: 0.0919
CGCGTCTA | inactive: 0.0359
ACAAGAGT | inactive: 0.282
ATAAGAAG | inactive: -0.00655
ATGTTCAG | inactive: 0.295
CACTGTAA | inactive: 0.156
CTGACACA | inactive: 0.2
AGGTTCTA | inactive: 0.00811
CAAGCAGC | inactive: 0.0314
ATCCACGA | ≥ 0.04
ATACGCCC | inactive: -0.159
GAGGGGGC | inactive: -0.341
CATTACTA | inactive: 0.164
CGATGTCC | inactive: 0.143
GGAGTTAA | inactive: 0.107
ATCAGTGA | inactive: 0.0654
AAAATGCT | ≥ 0.12
CGTGGTCC | inactive: -0.111
CCTATGAC | inactive: -0.0544
AGTTGAGC | inactive: -0.00996
AAGTCGAG | inactive: -0.0576
CCACAGGG | inactive: -0.138
